# According to PubChem BioAssay AID686978 (National Center for Advancing Translational Sciences (NCATS), 2013):
# Several values for one entry are separate records, joined by “and”; a condition that tells them apart may be missing. Equal values may be shown once. Among all 420,000 compounds or so, about 64,000 (15%) were called active. The inconclusive results got no clear call from the source; some entries with a clear call stand among them for comparison. Calls come from the whole dose curve; as a rule, active = well fitted inhibition curve with a large enough effect; inconclusive = small, poorly fitted or top-dose-only effect; inactive = flat fitted curve, though single readings scatter. A potency beside an inconclusive call is a rough fit, not a confirmed value.
# Assay: qHTS for Inhibitors of human tyrosyl-DNA phosphodiesterase 1 (TDP1): qHTS in cells in absence of CPT; note: nearly all actives have a fitted effect of over 55% in size
# Conditions: DT40 Tdp1-/- hTDP1 cells, no CPT, ATP luminescence, 48 h; activity change, negative = growth inhibition: at 46.2 µM (top of the series) unless noted
# Method in brief: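 Seeded 400 DT40-hTDP1 cells/well (vehicle DMSO, no 20 nM CPT); pinned compounds; ≥48 hr at 37 °C; CellTiter-Glo luminescence as viability measure.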
# % is set by controls: 0 for no effect and ±100 for the full control effect; potency is the fitted concentration of half-maximal effect; tags give direction and shape of the fitted curve.
Structure (SMILES),Potency,"activity change, negative = growth inhibition"
CC(C)C1C(=O)CC(c2ccccc2)NC1c1ccccc1 (configuration not stated),"inconclusive: 29.1 µM [inhibitor, single point]",–
CCOC(=O)c1c(-c2ccccc2)csc1NC(=O)c1ccc(S(=O)(=O)N2CC(C)OC(C)C2)cc1 (configuration not stated),"inconclusive: 8.2 µM [inhibitor, partial curve]",–
COc1ccc(OC)c(N(CC(=O)NCCSC2CCCCC2)S(=O)(=O)c2ccccc2)c1,"inconclusive: 29.1 µM [inhibitor, single point]",–
Cc1nn(-c2ccccc2)c2sc(-c3n[nH]c(=S)o3)cc12,"inconclusive: 23.1 µM [inhibitor, partial curve]",–
CCCn1nc(NS(=O)(=O)c2cccc3nonc23)c2cc3ccccc3nc21,–,inactive: 11.5%
Cc1ccccc1C(=O)N1CCN(c2ccc(NC(=O)c3ccc4c(c3)OCCO4)cc2)CC1,active: 23.1 µM,–
Cc1ccccc1OCC(=O)Nc1ccc2nc(SCc3ccccc3)sc2c1,–,inactive: 4.34%
COc1ccccc1CNS(=O)(=O)c1ccc(NC(C)=O)cc1,"inconclusive: 13 µM [inhibitor, partial curve, poor fit]",–
O=S(=O)(c1ccc(F)cc1)c1nc(-c2ccco2)oc1NCCCn1ccnc1,–,inactive: 0.475%
COC(=O)C(Cc1ccccc1)NC(=O)CC(C)CC(=O)Nc1ccc(OC)cc1OC (configuration not stated),–,inactive: 4.34%
O=C(O)c1ccc(NS(=O)(=O)c2ccc3c(c2)C(=O)c2ccccc2C3=O)cc1,–,inactive: -1.59%
CCCc1ccc2oc(C(=O)NCCc3cnn(C)c3)c(C)c2c1,active: 16.4 µM,–
COc1cc(/C=N\NC(=O)c2ccc(-c3ccccc3)cc2)cc(Br)c1O,"inconclusive: 7.31 µM [inhibitor, partial curve]",–
Cc1c(C(=O)NCc2ccccc2C(F)(F)F)sc(=O)n1Cc1ccc(Cl)c(Cl)c1,"inconclusive: 29.1 µM [inhibitor, single point]",–
COc1ccc(-c2ccc(NS(=O)(=O)c3cccc(C)c3)cc2)nn1,active: 29.1 µM,–
COC(=O)c1cc2nc(-c3ccccc3)cc(C)n2n1,–,inactive: -0.946%
COc1nc(Nc2cccc(C)c2)nc(N2CCCCC2)n1,active: 16.4 µM,–
O=C(C[C@H]1C/C=C\C[C@@H](Cc2ccc(F)cc2)C(=O)O[C@H](c2ccccc2)CNC1=O)NCCO,"inconclusive: 20.6 µM [inhibitor, single point]",–
CN(C)c1ncnc2c1ncn2-c1ccccc1,"inconclusive: 20.6 µM [inhibitor, single point]",–
CC1(C)CC(=O)C(C2C3=C(CC(C)(C)CC3=O)Oc3ccc4ccccc4c32)C(=O)C1 (configuration not stated),"inconclusive: 25.9 µM [inhibitor, single point]",–
CCOC(=O)C1=C(CNCCOc2ccc(OC)cc2)NC(=O)NC1c1ccc2c(c1)OCO2 (configuration not stated),"inconclusive: 16.4 µM [inhibitor, partial curve]",–
COC(=O)c1cn(C(=O)c2ccc(OC)c(OC)c2)c2ccccc12,"inconclusive: 29.1 µM [inhibitor, single point]",–
C[C@H](NC(=O)N1CCn2c1nc1ccccc12)C(=O)NCc1ccc(F)cc1,–,inactive: -5.25%

Structure (SMILES),Potency,"activity change, negative = growth inhibition"
COC(=O)CCC(C)N1CCC(Oc2ccc(C(=O)NCc3ccccn3)cc2)CC1 (configuration not stated),–,inactive: -1.53%
O=C(c1cccc(NS(=O)(=O)c2ccc(F)c(F)c2)c1)N1CCN(C(c2ccccc2)c2ccccc2)CC1,"inconclusive: 14.6 µM [inhibitor, partial curve, poor fit]",–
O=C(O)CCC(=O)Nc1cccc(-c2csc(-c3ccccc3)n2)c1,"inconclusive: 25.9 µM [inhibitor, single point]",–
COc1ccc(C2C(C(N)=O)=C(C)Nc3nc(-c4cccc(Cl)c4)nn32)cc1OC (configuration not stated),"inconclusive: 29.1 µM [inhibitor, single point]",–
Cc1ccc(NC(=O)c2ccccc2F)cc1S(=O)(=O)N1CCCCCC1,"inconclusive: 29.1 µM [inhibitor, single point]",–
C=CCNC(=O)C(=O)NCCOc1ccccc1Cl,"inconclusive: 16.4 µM [inhibitor, single point]",–
CCCCN(C(=O)COC(=O)c1sccc1C)c1c(N)n(CCC)c(=O)[nH]c1=O,–,inactive: -21.8%
CCOc1ccccc1NC(=O)C1C2CCC3C(CCC21)C3(Cl)Cl (configuration not stated),"inconclusive: 14.6 µM [inhibitor, single point]",–
COc1ccc(CCNC(=O)C2CCN(c3nc4ccccc4nc3C(F)(F)F)CC2)c(OC)c1,"inconclusive: 4.11 µM [inhibitor, full curve, poor fit]",–
Nc1cc([N+](=O)[O-])cc(N)c1N,"inconclusive: 10 µM [inhibitor, partial curve]",–
O=C(C1CCCCC1)N1CCCC(c2nc3c(nnn3Cc3ccccc3)c(=O)[nH]2)C1 (configuration not stated),"inconclusive: 23.1 µM [inhibitor, partial curve]",–
O=C(Nc1cccc(Cl)c1)c1ccc2sc([C@@H]3O[C@H](CO)[C@H](O)[C@H](O)[C@H]3O)nc2c1,–,inactive: -0.99%
Cc1ccc(C)c(CN2C(=O)C3(c4ccccc42)N(c2ccc(Cl)cc2)C(=O)CS3(=O)=O)c1 (configuration not stated),"inconclusive: 29.1 µM [inhibitor, single point]",–
O=C(CN(Cc1ccc(Br)cc1)S(=O)(=O)c1ccccc1)NCC1CCCO1 (configuration not stated),"inconclusive: 16.4 µM [inhibitor, single point]",–
O=C(/C=C/c1ccccc1Br)c1ccc2c(c1)OCO2,active: 23.1 µM,–
CC1(C)CC(C(CC(=O)O)c2ccccc2)CCO1 (configuration not stated),–,inactive: 1.43%
COc1ccc(CCNC(=O)CSCc2c(F)cccc2Cl)cc1OC,"inconclusive: 20.6 µM [inhibitor, single point]",–
CC1CC(C)CN(S(=O)(=O)c2ccc(C(=O)NCc3ccc4c(c3)OCO4)cc2)C1 (configuration not stated),"inconclusive: 29.1 µM [inhibitor, single point]",–
CCOc1ccc(/C=C2\SC(=S)N(CC(=O)N(CCO)C(C)(C)C)C2=O)cc1,"inconclusive: 23.1 µM [inhibitor, single point]",–
Cc1cccc(-n2ncc3c(NCCCO)ncnc32)c1,–,inactive: -8.14%
Cc1nc2c(-c3ccc(F)cc3)c(C)nn2c(C)c1CCC(=O)NCc1ccco1,"inconclusive: 25.9 µM [inhibitor, single point]",–
Cc1ccc(C(=O)Nc2ccc(C(=O)N/N=C/c3c[nH]c4ccccc34)cc2)cc1,"inconclusive: 29.1 µM [inhibitor, single point]",–
CC1CCN(c2nc3c(S(=O)(=O)c4ccc(Cl)cc4)nnn3c3ccsc23)CC1,active: 16.4 µM,–

Structure (SMILES),Potency,"activity change, negative = growth inhibition"
Cc1cccc(NC(=O)CSc2nc(-c3ccccc3Cl)nc3c2Cc2c(CO)cnc(C)c2O3)c1C,–,inactive: 0.549%
CC(C)c1ccc(N(C(=O)c2snc(C(N)=O)c2N)C(C(=O)NC2CCCC2)c2ccncc2)cc1 (configuration not stated),active: 23.1 µM,–
COc1ccc(-c2cc(C)no2)cc1S(=O)(=O)N1CCN(c2ccccc2F)CC1,"inconclusive: 20.6 µM [inhibitor, single point] and inconclusive: 23.1 µM [inhibitor, single point]",–
CCOC(=O)c1c(-c2ccccc2)csc1NC(=O)c1nn(CC)cc1Br,"inconclusive: 23.1 µM [inhibitor, single point]",–
CCc1nc2c(OCCC3CCCCC3)cccn2c1N(C)C(=O)C1CC1,active: 13 µM,–
Cc1ccc(/C=N/NC(=O)c2cc3c(ccc4ccccc43)o2)cc1[N+](=O)[O-],"inconclusive: 29.1 µM [inhibitor, single point]",–
Cc1cccc(CN2Cc3cccc4c3[C@H](C=CC4)CC2=O)c1,active: 20 µM,–
CCOc1cccc(C2CC(=O)Nc3cc4c(cc32)OCCO4)c1 (configuration not stated),active: 5.8 µM,–
O=C(NCc1ccccc1)C1CCCN(S(=O)(=O)c2ccc(Br)cc2)C1 (configuration not stated),"inconclusive: 23.1 µM [inhibitor, partial curve]",–
COc1cccc(CNC(=O)CCC2CCCN(C(=O)Cc3ccccc3F)C2)c1 (configuration not stated),"inconclusive: 29.1 µM [inhibitor, single point]",–
CCOC(=O)c1ccccc1NC(=O)CN(c1ccccc1)S(=O)(=O)N(C)C,"inconclusive: 17.8 µM [inhibitor, partial curve]",–
CC(O)CNCc1ccc(-c2ccccc2)cc1 (configuration not stated),–,inactive: -21%
Cc1onc(-c2c(Cl)cccc2Cl)c1C(=O)NCc1ccco1,"inconclusive: 4.47 µM [inhibitor, partial curve]",–
CC(OCCN1CCCC1)(c1ccc(F)cc1)c1ccc(F)cc1,"inconclusive: 25.9 µM [inhibitor, single point]",–
C=CC[C@H]1C(C(=O)OCC)=CC[C@@H](c2ccccc2)N1S(=O)(=O)c1ccc(C)cc1,"inconclusive: 23.1 µM [inhibitor, single point]",–
CC(=O)Nc1ccc(/C=C(\C#N)S(=O)(=O)c2ccc(C)cc2)cc1,"inconclusive: 29.1 µM [inhibitor, partial curve, poor fit]",–
Cc1ccc(N2CCN(S(=O)(=O)c3ccc(Cl)s3)CC2C)cc1 (configuration not stated),"inconclusive: 18.4 µM [inhibitor, single point]",–
CC1CCN(CCCCOc2ccc(C(C)(C)C)cc2)CC1,"inconclusive: 20.6 µM [inhibitor, single point]",–
CCCCOc1ccccc1C1C(C(=O)OC)=C(C)N(C)C(C)=C1C(=O)OC,active: 23.1 µM,–
CC(C)c1ccc(NC2=NCC(=O)N2Cc2cccs2)cc1,"inconclusive: 25.9 µM [inhibitor, single point]",–
Cc1[nH]c2ccc(-c3n[nH]c(=S)n3-c3ccccc3)cc2c1C,"inconclusive: 6.51 µM [inhibitor, full curve]",–
